Assay results as given in PubChem BioAssay AID1460 (National Center for Advancing Translational Sciences (NCATS), 2008).
About 5,800 (2.1%) of roughly 270,000 compounds were called active. The shares of active, inactive and inconclusive entries below differ from those in the screen. Calls follow the shape of the dose curve; as a rule, active = well fitted inhibition curve with a large enough effect; inconclusive = small, poorly fitted or top-dose-only effect; inactive = flat fitted curve, though single readings scatter. Potencies of inconclusive entries are doubtful fits and often do not repeat.

molecular target: Microtubule-associated protein tau (Homo sapiens) (UniProt P10636); experiment: qHTS for Inhibitors of Tau Fibril Formation, Thioflavin T Binding; conditions: recombinant tau K18 P301L (four-repeat tau fragment), heparin-induced fibrillization, ThT fluorescence; series mostly up to 57.4 µM; also: nearly all actives have a fitted effect of over 55% in size
From the text: NIH Molecular Libraries Probe Production Network [MLPCN]
NIH Chemical Genomics Center [NCGC]
Assay Provider: Carlo Ballatore, University of Pennsylvania
The microtubule-associated protein tau is an abundant protein in the axons of neurons that stabilizes microtubules. With its ability to modulate microtubule dynamics, tau contributes directly or indirectly, to key structural and regulatory cellular functions. Particularly important is the influence tau exerts on axonal transport, which allows signaling molecules, trophic factors and other essential cellular constituents to travel along the axons. Under pathological conditions, tau becomes sequestered into insoluble aggregates called neurofibrillary tangles. This phenomenon is believed to have pathological consequences by promoting axonal transport deficits that ultimately lead to synaptic dysfunction and neuronal loss. To identify inhibitors of tau aggregation, a heparin-induced tau fibril formation assay was used that employed a recombinantly expressed fragment of tau, K18 (Q242-E372), bearing a P301L mutation (Gustke et al. 1994; Hong et al. 1998). This assay monitors tau fibrillization by Thioflavin T (ThT) fluorescence.
Gustke, N., B. Trinczek, et al. (1994). "Domains of tau protein and interactions with microtubules." Biochemistry 33(32): 9511-22.
Hong, M., V. Zhukareva, et al. (1998).
Li, W. and V. M. Lee (2006).
von Bergen, M., S. Barghorn, et al. (2001). "Mutations of tau protein in frontotemporal dementia promote aggregation of paired helical filaments by enhancing local beta-structure." J Biol Chem 276(51): 48165-74.
NCGC Assay Protocol Summary:
For screening, 2 uL/well human K18 P301L (15 uM unlabeled and 0.24 uM Alexa 594-labeled tau, final concentrations) in reagent buffer (100 mM sodium acetate pH 7) was dispensed into black solid 1536-well plates (Grenier) using a solenoid-based dispenser. Following transfer of 23 nL compound or DMSO vehicle by a pin tool, 2 uL/well heparin (20 uM final concentration) in reagent buffer was added and the plate centrifuged 15 s at 1000 RPM. Plates were incubated 6 hr at 37 C and then 1 uL/well ThT (30 uM final concentration) was added. After a 1 hr ambient incubation, the plates were read by an Envision (Perkin Elmer) to monitor ThT fluorescence (450/8 nm excitation and 510/23 nm emission).
Keywords: NIH Roadmap, MLPCN, MLI, MLSMR, NCGC, qHTS, tau, tauopathies, Alzheimer's disease, fibril, neurodegeneration, aggregation
Potency is read from the fitted curve at half-maximal effect; tags tell the direction and shape of the fitted curve.

UniProt P10636, sequence (P10636 whole entry, looked up, the tested form may be a part): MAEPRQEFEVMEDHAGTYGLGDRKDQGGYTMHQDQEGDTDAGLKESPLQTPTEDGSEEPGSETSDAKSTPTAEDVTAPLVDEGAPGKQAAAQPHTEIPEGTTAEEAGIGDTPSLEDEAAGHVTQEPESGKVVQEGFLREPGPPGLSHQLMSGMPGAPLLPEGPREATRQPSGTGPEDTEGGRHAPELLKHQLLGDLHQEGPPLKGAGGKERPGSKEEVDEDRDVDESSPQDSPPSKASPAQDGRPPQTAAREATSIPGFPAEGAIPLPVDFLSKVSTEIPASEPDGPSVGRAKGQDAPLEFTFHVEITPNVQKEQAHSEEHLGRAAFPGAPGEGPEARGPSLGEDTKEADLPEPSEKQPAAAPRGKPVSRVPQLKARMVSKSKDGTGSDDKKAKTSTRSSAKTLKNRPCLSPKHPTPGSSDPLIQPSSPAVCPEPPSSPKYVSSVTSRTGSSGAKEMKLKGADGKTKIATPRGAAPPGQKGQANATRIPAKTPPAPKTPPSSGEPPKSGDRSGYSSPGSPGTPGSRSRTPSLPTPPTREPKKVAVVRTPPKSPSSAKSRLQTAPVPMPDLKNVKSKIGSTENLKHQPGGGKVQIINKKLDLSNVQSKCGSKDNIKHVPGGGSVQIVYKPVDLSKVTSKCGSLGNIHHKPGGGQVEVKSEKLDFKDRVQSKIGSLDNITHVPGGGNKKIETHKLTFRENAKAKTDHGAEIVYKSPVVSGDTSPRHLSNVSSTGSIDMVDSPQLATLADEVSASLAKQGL

Row | SMILES | Potency
1 | CC(=O)[C@]1(O)Cc2c(O)c3c(c(O)c2[C@@H](O[C@H]2C[C@H](N)[C@H](O)[C@H](C)O2)C1)C(=O)c1c(O)cccc1C3=O | active: 4.47 µM
2 | CSc1nnc(CCCCCCCCc2nnc(SC)o2)o1 | inconclusive: 0.0562 µM [inhibitor, full curve, poor fit]
3 | O=C(N/N=C/c1cccc(Oc2ccccc2)c1)c1ccccc1Br | inactive
4 | COc1ccc(N2CCN(c3ccc(NC(=O)C4CCCCC4)cc3C#N)CC2)cc1 | inconclusive: 0.794 µM [inhibitor, full curve]
5 | CCOc1ccc(C(=O)/C=C/c2ccc(OC)c(OC)c2)cc1 | inconclusive: 12.6 µM [inhibitor, partial curve]
6 | Cc1cc(=O)[nH]c(N/N=C/c2ccc([N+](=O)[O-])cc2)n1 | inconclusive: 22.4 µM [inhibitor, partial curve]
7 | Cc1nn(-c2ccc(N3CCCC3)nn2)c(C)c1CCC(=O)NCc1ccc(F)cc1 | inactive
8 | COc1ccc(/C=N/Nc2snc(SC)c2C#N)cc1OC | active: 14.1 µM
9 | Cc1ccc(C(=O)Nc2nccs2)cc1S(=O)(=O)N1CCCCC1 | inactive
10 | Cc1ccsc1C1C2=C(CC(C)(C)CC2=O)Nc2ncnn21 (stereo not given) | inactive
11 | CCOC(=O)c1sc(Nc2nc(OC)cc(OC)n2)nc1C | inconclusive: 17.8 µM [inhibitor, partial curve]
12 | COc1ccc(-c2onc3ccc(Br)cc23)cc1 | inactive
13 | N#Cc1ccc(C(=O)Nc2cccc(NC(=O)c3ccco3)c2)c(F)c1 | inconclusive: 15.8 µM [inhibitor, partial curve, poor fit]
14 | O=C(c1cnn(-c2ccccc2)c1)c1ccc2ccccc2c1O | inconclusive: 4.47 µM [inhibitor, full curve]
15 | COc1ccc(C(C)=O)c(OC(=O)c2ccco2)c1 | inconclusive: 22.4 µM [inhibitor, partial curve, poor fit]
16 | O=C(COC(=O)c1ccccc1C(=O)N1CCN(c2ccccc2)CC1)Nc1ccc(F)cc1 | inconclusive: 28.2 µM [inhibitor, partial curve, poor fit]
17 | Cc1ccc(-c2c[n+](CC(=O)Nc3nc(-c4ccc(F)cc4)cs3)c3n2CCC3)cc1 | inconclusive: 15.8 µM [inhibitor, partial curve]
18 | CC(C)Oc1cccc(C(=O)NC(=S)Nc2ccccc2)c1 | inactive
19 | Cc1[nH]c2ccc(C(=O)NCCc3ccccc3Cl)cc2c1C | inconclusive: 17.8 µM [inhibitor, partial curve]
20 | Cc1nc2ncnn2c(N2CCN(C(c3ccccc3)c3ccccc3)CC2)c1C | inactive
21 | C/C(=N/NC(=O)c1cccs1)c1ccc(NC(=O)COc2ccc(Cl)cc2)cc1 | inconclusive: 2.51 µM [inhibitor, full curve]
22 | Fc1ccc(NC(=S)NCc2cccnc2)cc1 | inactive
23 | CN(C)CCCN(C(=O)c1sc2ccccc2c1Cl)c1nc2ccc(F)cc2s1 | inactive

Row | SMILES | Potency
24 | COC(=O)/C=C1/S/C(=N/N=C/c2ccco2)NC1=O | inconclusive: 8.91 µM [inhibitor, partial curve]
25 | Oc1ccc2ccccc2c1C=Nc1ccccc1 | inconclusive: 35.5 µM [inhibitor, partial curve]
26 | COc1cccc(OCc2nc3ccccc3n2C)c1 | inactive
27 | CCOC(=O)c1[nH]c2ccccc2c1NC(=S)Nc1cccc(C)c1C | inconclusive: 14.1 µM [inhibitor, partial curve, poor fit]
28 | COc1cc(NC(=O)/C=C/c2ccccc2)c(C(=O)O)cc1OC | inconclusive: 7.08 µM [inhibitor, partial curve, poor fit]
29 | NC(=S)N/N=C/c1ccc(-c2cc(Cl)cc(Cl)c2)o1 | inconclusive: 4.47 µM [inhibitor, full curve]
30 | Cc1ccc(OCCSc2nc3ccccc3n2CC(=O)N2CCCCC2)c(C)c1 | inconclusive: 31.6 µM [inhibitor, single point]
31 | COc1cccc(/C=C2\SC(=S)N(N3C(=O)CCCC3=O)C2=O)c1 | inconclusive: 20 µM [inhibitor, partial curve]
32 | Cn1nc(-c2ccc(Cl)cc2)c2cc(C(=O)N3CCN(c4ccccn4)CC3)sc21 | inconclusive: 15.8 µM [inhibitor, partial curve]
33 | COc1cccc(-c2nn(-c3ccccc3)cc2CN(C)C(C)c2ccon2)c1 (stereo not given) | inconclusive: 44.7 µM [inhibitor, single point]
34 | Cc1cccc(Nc2ccc(NCc3ccccc3)nn2)c1 | inconclusive: 11.2 µM [inhibitor, partial curve]
35 | O=C(NC1CC2CCC(C1)N2C(=O)NCc1ccccc1)NC12CC3CC(CC(C3)C1)C2 (stereo not given) | inactive
36 | O=C(N/N=C/C=C\c1ccco1)c1ccccn1 | inconclusive: 35.5 µM [inhibitor, single point]
37 | COc1ccc(Oc2nccc(-c3ccccc3)c2C#N)cc1 | inconclusive: 35.5 µM [inhibitor, partial curve]
38 | Cc1sc2nc(SCC(=O)N3CCOCC3)[nH]c(=O)c2c1C | inactive
39 | O=C(Nc1ccc2oc(-c3ccccc3)nc2c1)c1ccncc1 | inconclusive: 0.158 µM [inhibitor, full curve, poor fit]
40 | CCN(CC)CCNC(=O)c1ccc2c(=O)n3nc(Nc4cccc(Cl)c4C)sc3nc2c1 | inconclusive: 20 µM [activator, partial curve]
41 | COc1ccc(C2=[N+]([O-])C(C)(C)C(c3ccccc3)=N2)cc1 | inconclusive: 22.4 µM [inhibitor, partial curve, poor fit]
42 | COc1ccc(C/C(C)=N/NC(=O)c2ccc(Cl)cc2)cc1 | inconclusive: 12.6 µM [inhibitor, partial curve]
43 | CCOc1ccc(C(c2c(C)[nH]n(-c3ccccc3)c2=O)c2c(C)[nH]n(-c3ccccc3)c2=O)cc1OC | inconclusive: 15.8 µM [inhibitor, partial curve]
44 | Cc1ccc(-c2noc(CCC(=O)NCC3CCCO3)n2)cc1 (stereo not given) | inactive
45 | CN1CCN(C(=S)c2cn(Cc3cccc(F)c3)c3ccccc23)CC1 | inactive
